{"sequences": {"note": "Sequences of proteins named here, by UniProt entry; tags and fusion partners are left off. A change or cut given only in a name is not applied to a line headed by its entry. Residues count along the entry.", "UniProt Q9KWJ5": "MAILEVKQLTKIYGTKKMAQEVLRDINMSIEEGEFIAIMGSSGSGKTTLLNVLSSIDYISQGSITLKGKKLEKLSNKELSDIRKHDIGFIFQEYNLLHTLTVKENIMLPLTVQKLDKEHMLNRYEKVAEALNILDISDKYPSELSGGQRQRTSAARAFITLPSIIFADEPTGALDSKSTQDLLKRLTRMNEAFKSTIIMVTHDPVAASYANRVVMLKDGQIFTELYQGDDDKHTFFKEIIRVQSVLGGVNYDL", "UniProt Q99VW1": "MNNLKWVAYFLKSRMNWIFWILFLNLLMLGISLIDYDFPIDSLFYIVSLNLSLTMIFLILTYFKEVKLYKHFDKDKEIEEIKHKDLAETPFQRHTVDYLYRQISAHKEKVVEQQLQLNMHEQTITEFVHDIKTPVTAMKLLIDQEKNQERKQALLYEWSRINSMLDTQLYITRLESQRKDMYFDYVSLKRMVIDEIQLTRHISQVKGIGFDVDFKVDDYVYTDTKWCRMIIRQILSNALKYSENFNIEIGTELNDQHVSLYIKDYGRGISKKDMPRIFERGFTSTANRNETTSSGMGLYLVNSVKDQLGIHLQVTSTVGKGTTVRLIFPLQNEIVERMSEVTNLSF", "UniProt P02769, residues 25-607": "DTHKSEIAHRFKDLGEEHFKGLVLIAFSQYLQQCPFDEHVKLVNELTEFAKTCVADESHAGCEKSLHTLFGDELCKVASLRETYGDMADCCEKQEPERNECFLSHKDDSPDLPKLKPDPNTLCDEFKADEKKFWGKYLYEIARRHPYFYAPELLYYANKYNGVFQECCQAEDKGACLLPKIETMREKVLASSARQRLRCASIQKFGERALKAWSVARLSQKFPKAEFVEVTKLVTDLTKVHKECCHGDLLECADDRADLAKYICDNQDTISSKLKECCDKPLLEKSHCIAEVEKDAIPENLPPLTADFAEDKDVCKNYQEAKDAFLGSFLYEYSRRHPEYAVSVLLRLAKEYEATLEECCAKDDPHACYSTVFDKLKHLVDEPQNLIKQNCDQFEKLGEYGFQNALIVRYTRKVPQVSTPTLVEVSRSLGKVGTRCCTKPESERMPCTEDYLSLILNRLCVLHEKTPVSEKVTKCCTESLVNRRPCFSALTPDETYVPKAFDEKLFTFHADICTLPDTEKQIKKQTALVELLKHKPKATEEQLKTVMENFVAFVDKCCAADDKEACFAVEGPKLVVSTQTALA"}, "source": "paper PMC4314665", "about": "“Diversity of two-component systems: insights into the signal transduction mechanism by the Staphylococcus aureus two-component system GraSR” (F1000Research, 2014)", "molecules": {"B1": {"name": "GraX, auxiliary protein (tagless) (natural protein)", "chain": "MKPKVLLAGGTGYIGKYLSEVIENDAELFAISKYPDNKKTDDVEMTWIQCDIFHYEQVVAAMNQIDIAVFFIDPTKNSAKITQSSARDLTLIAADNFGRAAAINQVKKVIYIPGSRYDNETIERLGAYGTPVETTNLVFKRSLVNVELQVSKYDDVRSTMKVVLPKGWTLKNVVNHFIAWMGYTKGTFVKTEKSHDQFKIYIKNKVRPLAVFKIEETADGIITLILLSGSLVKKYTVNQGKLEFRLIKESAVVYIHLYDYIPRLFWPIYYFIQAPMQKMMIHGFEVDCRIKDFQSRLKSGENMKYTK", "notes": "Auxiliary protein GraX, S. aureus strain Mu50, full length graX gene; Cloned in pET26b between NdeI and HindIII; Dimers seen by SDS-PAGE without DTT; also called untagged GraX; source: E. coli BL21(DE3), purified (SP-Sepharose cation exchange), to 90%"}, "B2": {"name": "GraR, response regulator of S. aureus (protein, UniProt Q932F1 1-224)", "chain": "MQILLVEDDNTLFQELKKELEQWDFNVAGIEDFGKVMDTFESFNPEIVILDVQLPKYDGFYWCRKMREVSNVPILFLSSRDNPMDQVMSMELGADDYMQKPFYTNVLIAKLQAIYRRVYEFTAEEKRTLTWQDAVVDLSKDSIQKGDDTIFLSKTEMIILEILITKKNQIVSRDTIITALWDDEAFVSDNTLTVNVSRLRKKLSEISMDSAIETKVGKGYMAHE"}}, "key": {"[1]": {"molecular_target": "His-VraF, ATPase protein of the ABC transporter VraFG with a C-terminal His6 tag (S. aureus strain Mu50) (UniProt Q9KWJ5)", "assay": "pull-down; MAT-FLAG-GraX or His-VraF immobilised on Ni-NTA agarose resin; prey added (GraR at about 1:1.2, GraX at 1:2), room temperature; washes; elution fractions on SDS-PAGE; both purified"}, "[2]": {"molecular_target": "GraR^N (1-134) (S. aureus strain Mu50) (UniProt Q932F1)", "assay": "SEC; HPLC size-exclusion column TSK Gel (7.8mm x 30cm, 5um) calibrated with standard proteins; both purified"}, "[3]": {"molecular_target": "GST-GraS, cytoplasmic domain of histidine kinase GraS (77-346) fused to GST (S. aureus strain Mu50) (UniProt Q99VW1)", "assay": "pull-down; GST-fused bait immobilised on glutathione-sepharose resin in 1 x PBS; prey added at bait:prey ratios of about 1:1 to 1:2, 30 min at room temperature; five to seven washes; elution with 10 mM reduced glutathione in 50 mM Tris pH 8.0; SDS-PAGE; both purified"}, "[4]": {"molecular_target": "GST-GraS, cytoplasmic domain of histidine kinase GraS (77-346) fused to GST (S. aureus strain Mu50) (UniProt Q99VW1)", "assay": "pull-down; GST-fused bait immobilised on glutathione-sepharose resin in 1 x PBS; prey added at bait:prey ratios of about 1:1 to 1:2, 30 min at room temperature; five to seven washes; elution with 10 mM reduced glutathione in 50 mM Tris pH 8.0; SDS-PAGE; both purified", "remark": "listed apart in the source"}, "[5]": {"molecular_target": "GST-GraS^CA, ATP-binding domain of GraS (181-346) fused to GST (S. aureus strain Mu50) (UniProt Q99VW1)", "assay": "pull-down; GST-fused bait immobilised on glutathione-sepharose resin in 1 x PBS; prey added at bait:prey ratios of about 1:1 to 1:2, 30 min at room temperature; five to seven washes; elution with 10 mM reduced glutathione in 50 mM Tris pH 8.0; SDS-PAGE; both purified"}, "[6]": {"molecular_target": "GST-GraS^DHp-CA, DHp and CA domains of GraS (110-346) fused to GST (S. aureus strain Mu50) (UniProt Q99VW1)", "assay": "pull-down; GST-fused bait immobilised on glutathione-sepharose resin in 1 x PBS; prey added at bait:prey ratios of about 1:1 to 1:2, 30 min at room temperature; five to seven washes; elution with 10 mM reduced glutathione in 50 mM Tris pH 8.0; SDS-PAGE; both purified"}, "[7]": {"molecular_target": "GraR, response regulator of S. aureus (S. aureus strain Mu50) (UniProt Q932F1)", "assay": "SEC; HPLC size-exclusion column TSK Gel (7.8mm x 30cm, 5um) calibrated with standard proteins; both purified"}}, "note": "Like-named read-outs stand apart in the source and are kept apart here. These are yes or no findings as the source states them, for the method shown. Some results given as binding are weak or reduced against the parent protein; the word gives no strength. For some of these results: Tags and fused reporters may be left off the sequences shown."}
{"molecule": "GST-GraS, cytoplasmic domain of histidine kinase GraS (77-346) fused to GST (from UniProt Q99VW1 77-346) (domain or fragment)", "values": [{"measurement": "binding", "setting": "[1]", "result": "binds"}]}
{"molecule": "GST-GraS^CA, ATP-binding domain of GraS (181-346) fused to GST (from UniProt Q99VW1 181-346) (domain or fragment)", "values": [{"measurement": "binding", "setting": "[1]", "result": "no binding"}]}
{"molecule": "GST-GraS^DHp-CA, DHp and CA domains of GraS (110-346) fused to GST (from UniProt Q99VW1 110-346) (domain or fragment)", "values": [{"measurement": "binding", "setting": "[1]", "result": "no binding"}]}
{"molecule": "GraR^N (1-134) (from UniProt Q932F1 1-134) (domain or fragment)", "values": [{"measurement": "binding", "setting": "[2]", "result": "no binding"}]}
{"molecule": "bovine serum albumin (from UniProt P02769 25-607)", "values": [{"measurement": "binding", "setting": "[3]", "result": "no binding (tested: ratio of 1:1)"}]}
{"molecule": "B1", "values": [{"measurement": "binding", "setting": "[1]", "result": "binds"}, {"measurement": "binding", "setting": "[4]", "result": "binds"}, {"measurement": "binding", "setting": "[5]", "result": "no binding (tested: ratio of 1:1.2 GraX:GST-GraS^CA)"}, {"measurement": "binding", "setting": "[6]", "result": "binds"}]}
{"molecule": "B2", "values": [{"measurement": "binding", "setting": "[7]", "result": "no binding"}]}
